Biological target: SIRPα on human monocyte-derived macrophages (human), P78324
Experiment: cell-based or functional assay

EC50 of Rituxan-dependent ADCP in combination, donor P121031405C [µg/mL] | maximum phagocytic percentage, Rituxan-dependent ADCP of Raji cells, donor P121031405C [%] | Binder
0.0119 | 32.4 | Q-1801 (bispecific antibody, human IgG1, kappa, L234A L235A) heavy: QVQLVQSGAEVKKPGASVKVSCKASGYTFTNYWINWVRQAPGQGLEWIAMIDPSDSETHYNQIFKDRATLTTDTSTSTAYMELRSLRSDDTAVYYCAMDYGSLYAMDYWGRGTLVTVSSASTKGPSVFPLAPSSKSTSGGTAALGCLVKDYFPEPVTVSWNSGALTSGVHTFPAVLQSSGLYSLSSVVTVPSSSLGTQTYICNVNHKPSNTKVDKKV[no letters for human IgG1 Fc with L234A L235A K338A (EU numbers)]GGGGSGGGGSGGGGSGGGGSEVQLLESGGGLVQPGGSLRLSCAASGFTLDDYAIGWFRQAPGKGREGVSCISKSGETTFFVESVKDRFTISRDNSKNTLYLQMNSLRAEDTAVYYCATGSWCTVGSMSRQFYRQFFHSWGQGTLVTVSS light: DIVLTQSPDSLAVSLGERATINCRASQSVRSSGYNWIFWYQQKPGQPPKLLIYLASNRDSGVPDRFSGSGSGTDFTLTISSLQAEDVAVYYCQHSRELPTFGQGTKLEIKRTVAAPSVFIFPPSDEQLKSGTASVVCLLNNFYPREAKVQWKVDNALQSGNSQESVTEQDSKDSTYSLSSTLTLSKADYEKHKVYACEVTHQGLSSPVTKSFNRGEC
0.013 | 32.1 | QP32700279 (antibody, human IgG1, kappa, L234A L235A) heavy: QVQLVQSGAEVKKPGASVKVSCKASGYTFTNYWINWVRQAPGQGLEWIAMIDPSDSETHYNQIFKDRATLTTDTSTSTAYMELRSLRSDDTAVYYCAMDYGSLYAMDYWGRGTLVTVSSASTKGPSVFPLAPSSKSTSGGTAALGCLVKDYFPEPVTVSWNSGALTSGVHTFPAVLQSSGLYSLSSVVTVPSSSLGTQTYICNVNHKPSNTKVDKKV[no letters for human IgG1 Fc with L234A L235A K338A (EU numbers)] light: DIVLTQSPDSLAVSLGERATINCRASQSVRSSGYNWIFWYQQKPGQPPKLLIYLASNRDSGVPDRFSGSGSGTDFTLTISSLQAEDVAVYYCQHSRELPTFGQGTKLEIKRTVAAPSVFIFPPSDEQLKSGTASVVCLLNNFYPREAKVQWKVDNALQSGNSQESVTEQDSKDSTYSLSSTLTLSKADYEKHKVYACEVTHQGLSSPVTKSFNRGEC
0.0176 | 30.1 | QP026249 (KWAR23 analog) (antibody, human IgG4 S228P, kappa) heavy: EVQLQQSGAELVKPGASVKLSCTASGFNIKDYYIHWVQQRTEQGLEWIGRIDPEDGETKYAPKFQDKATITADTSSNTAYLHLSSLTSEDTAVYYCARWGAYWGQGTLVTVSSASTKGPSVFPLAPCSRSTSESTAALGCLVKDYFPEPVTVSWNSGALTSGVHTFPAVLQSSGLYSLSSVVTVPSSSLGTKTYTCNVDHKPSNTKVDKRV[no letters for human IgG4 Fc with S228P (EU numbers)] light: QIVLTQSPAIMSASPGEKVTLTCSASSSVSSSYLYWYQQKPGSSPKLWIYSTSNLASGVPARFSGSGSGTSYSLTISSMEAEDAASYFCHQWSSYPRTFGAGTKLELKRTVAAPSVFIFPPSDEQLKSGTASVVCLLNNFYPREAKVQWKVDNALQSGNSQESVTEQDSKDSTYSLSSTLTLSKADYEKHKVYACEVTHQGLSSPVTKSFNRGEC
0.0149 | 28.1 | QP37503751 (1H9 analog) (antibody, human IgG1, kappa) heavy: QVQLVQSGAEVKKPGASVKVSCKASGYTFTSYWITWVKQAPGQGLEWIGDIYPGSGSTNHIEKFKSKATLTVDTSISTAYMELSRLRSDDTAVYYCATGYGSSYGYFDYWGQGTLVTVSS[no letters for human IgG1 constant region with changes] light: DIQMTQSPSSLSASVGDRVTITCRASENIYSYLAWYQQKPGKAPKLLIYTAKTLAEGVPSRFSGSGSGTDFTLTISSLQPEDFATYYCQHQYGPPFTFGQGTKLEIKRTVAAPSVFIFPPSDEQLKSGTASVVCLLNNFYPREAKVQWKVDNALQSGNSQESVTEQDSKDSTYSLSSTLTLSKADYEKHKVYACEVTHQGLSSPVTKSFNRGEC
